Laboratory results taken from the supplement of paper PMC7826260.
Some of the results follow. Each Rep nickase domain was tested in vitro on the same pool of single strands for 1 h at 37 °C with 3 µM enzyme; only the middle of the 90-letter strands is printed. Uncut reads are compared with the no-enzyme pool on a log2 scale; the lower, the more was cut; hits are not called. Reads are scaled to the total; values above 0 arise when much of the pool is cut.

Legend:
Experiment in all cases: uncleaved DNA left, log2 of reads against the no-enzyme library (log2 ratio); higher = less cleavage (more negative = more Rep cleavage of the k-mer); sequences stand for … in CTCGTCCG…ACCGGAGA
[1] = tested on: T1, Rep nickase domain of Muscovy duck circovirus
T1 sequence (residues 1-111 of Rep, tag left off): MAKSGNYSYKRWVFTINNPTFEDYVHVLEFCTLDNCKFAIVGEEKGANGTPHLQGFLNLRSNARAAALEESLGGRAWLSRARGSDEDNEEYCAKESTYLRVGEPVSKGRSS
Procedure: (§1)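 A pool of 90-nt single-stranded DNAs with seven random bases just before the constant AC of the nick site (name = the seven bases) was cut by 3 µM recombinant His6-SUMO-tagged Rep nickase domain (300 nM DNA, 50 mM HEPES pH 8.0, 50 mM NaCl, 1 mM MnCl2, 1 h, 37 °C, three replicates). Uncut DNA was amplified and sequenced.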

[2] = tested on: T2, Rep nickase domain of banana bunchy top virus
T2 sequence (residues 1-94 of Rep, tag left off): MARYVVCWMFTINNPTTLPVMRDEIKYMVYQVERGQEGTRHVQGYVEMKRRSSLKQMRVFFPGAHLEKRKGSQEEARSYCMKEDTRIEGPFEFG
Procedure: as §1

[3] = tested on: T3, Rep nickase domain of cabbage leaf curl virus
T3 sequence (residues 1-116 of Rep, tag left off): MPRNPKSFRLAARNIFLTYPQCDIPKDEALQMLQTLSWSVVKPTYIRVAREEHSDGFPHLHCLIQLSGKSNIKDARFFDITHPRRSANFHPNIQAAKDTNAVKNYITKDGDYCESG
Procedure: as §1

[4] = tested on: T4, Rep nickase domain of chickpea chlorotic dwarf virus
T4 sequence (residues 1-124 of Rep, tag left off): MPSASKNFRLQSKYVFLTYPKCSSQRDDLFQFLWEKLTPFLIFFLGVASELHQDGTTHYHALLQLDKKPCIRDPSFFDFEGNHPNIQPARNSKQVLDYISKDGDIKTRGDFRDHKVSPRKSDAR
Procedure: as §1

[5] = tested on: T5, Rep nickase domain of faba bean necrotic yellows virus
T5 sequence (residues 1-98 of Rep, tag left off): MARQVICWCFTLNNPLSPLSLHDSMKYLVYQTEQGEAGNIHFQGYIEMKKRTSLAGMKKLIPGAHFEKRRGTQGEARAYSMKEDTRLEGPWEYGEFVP
Procedure: as §1

[6] = tested on: T6, Rep nickase domain of maize striate mosaic virus
T6 sequence (residues 1-117 of Rep, tag left off): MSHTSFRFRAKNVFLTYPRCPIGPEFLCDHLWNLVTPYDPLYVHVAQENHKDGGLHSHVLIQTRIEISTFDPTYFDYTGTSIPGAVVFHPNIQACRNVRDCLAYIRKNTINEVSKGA
Procedure: as §1

[7] = tested on: T7, Rep nickase domain of porcine circovirus 2
T7 sequence (residues 2-116 of Rep, tag left off): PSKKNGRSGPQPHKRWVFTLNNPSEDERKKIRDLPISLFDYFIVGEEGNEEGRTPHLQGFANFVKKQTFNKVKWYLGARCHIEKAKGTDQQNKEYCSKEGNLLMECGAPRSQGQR
Procedure: as §1

[8] = tested on: T8, Rep nickase domain of tomato golden mosaic virus
T8 sequence (residues 1-124 of Rep, tag left off): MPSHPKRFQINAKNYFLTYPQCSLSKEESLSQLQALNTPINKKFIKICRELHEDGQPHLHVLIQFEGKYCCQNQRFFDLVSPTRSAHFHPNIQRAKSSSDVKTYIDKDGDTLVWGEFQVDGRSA
Procedure: as §1

[9] = tested on: T9, Rep nickase domain of tomato yellow leaf curl virus
T9 sequence (residues 1-136 of Rep, tag left off): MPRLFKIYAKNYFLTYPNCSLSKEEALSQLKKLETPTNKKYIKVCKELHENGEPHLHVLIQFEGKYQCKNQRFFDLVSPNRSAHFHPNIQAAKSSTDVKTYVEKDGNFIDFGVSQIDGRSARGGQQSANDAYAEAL
Procedure: as §1

[10] = tested on: T10, Rep nickase domain of wheat dwarf virus
T10 sequence (residues 1-137 of Rep, tag left off): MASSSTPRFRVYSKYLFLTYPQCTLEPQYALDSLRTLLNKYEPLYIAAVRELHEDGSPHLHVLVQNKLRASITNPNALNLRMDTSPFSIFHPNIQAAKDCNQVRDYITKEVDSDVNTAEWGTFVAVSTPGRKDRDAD
Procedure: as §1

Sequence | uncleaved DNA left (log2) [1] | uncleaved DNA left (log2) [2] | uncleaved DNA left (log2) [3] | uncleaved DNA left (log2) [4] | uncleaved DNA left (log2) [5] | uncleaved DNA left (log2) [6] | uncleaved DNA left (log2) [7] | uncleaved DNA left (log2) [8] | uncleaved DNA left (log2) [9] | uncleaved DNA left (log2) [10]
CACCAGG | 0.00321 | 0.0341 | 0.164 | 0.626 | 0.0161 | -0.0487 | 0.0955 | -0.0165 | 0.016 | 0.0251
GCCTTCG | -0.0698 | -0.00878 | -0.707 | -0.355 | -0.0312 | -0.875 | 0.153 | 0.0573 | 0.069 | -0.154
AATGAAT | 0.0955 | 0.031 | 0.185 | 0.707 | -0.007 | 1.17 | -0.0151 | 0.0707 | -0.127 | 0.0797
ACTCGTT | 0.0971 | -0.109 | -0.282 | -2 | -0.0135 | -0.809 | -1.37 | -0.0702 | -0.0739 | -0.179
ATTTACT | -3.37 | -3.52 | -0.728 | -3.28 | -0.2 | -1.12 | -3.83 | -0.258 | -0.063 | -0.329
AATGAGA | 0.136 | 0.0837 | -0.333 | -0.522 | 0.0883 | -1.02 | 0.144 | 0.0744 | 0.0285 | -0.044
TTGCTAA | 0.046 | 0.0741 | -0.146 | -0.191 | -0.123 | -0.753 | 0.0462 | -0.0738 | 0.15 | -0.0294
AAATATC | -0.0419 | 0.00262 | -3.15 | -2.98 | 0.00305 | -2.75 | -0.491 | -1.75 | -0.00485 | -1.86
CGCAAAT | -0.0112 | 0.151 | 0.0278 | -0.345 | 0.022 | -0.31 | -0.441 | -0.107 | -0.0985 | 0.00708
GTGCCGC | -0.0103 | 0.0642 | 0.228 | 0.574 | -0.00899 | 0.914 | 0.147 | 0.0721 | 0.0362 | 0.103
GGTGTCA | 0.101 | 0.0562 | 0.672 | 1.53 | 0.0189 | 2.09 | 0.201 | 0.0437 | 0.18 | 0.124
TTTGCGG | 0.0644 | -0.0394 | -0.13 | -0.128 | -0.0191 | -0.307 | 0.0481 | 0.0305 | 0.0243 | -0.0195
CACGTAC | -0.0606 | -0.196 | -0.368 | -0.311 | -0.0603 | -0.777 | -0.0371 | -0.145 | -0.156 | -0.066
TTCGGTT | 0.047 | 0.0236 | 0.0441 | -0.647 | -0.12 | 0.611 | -0.092 | -0.121 | -0.134 | -0.0912
TTAGTTC | 0.000431 | -0.173 | 0.126 | -0.981 | 0.0569 | -0.302 | -0.0939 | -0.0562 | 0.0334 | -0.138
TCACTAT | -0.159 | -0.0218 | -0.0763 | -1.61 | -0.0475 | -0.676 | -0.161 | -0.1 | -0.0572 | -0.181
TTTGCAC | -0.109 | -0.147 | -0.534 | -0.775 | 0.0321 | -1.21 | 0.00463 | -0.135 | -0.104 | -0.104
CGTTTAC | 0.0602 | 0.106 | 0.0876 | -0.867 | 0.131 | -0.229 | 0.124 | 0.0921 | 0.0612 | 0.0621
TTCTAGT | -2.61 | -0.103 | -0.271 | -0.966 | -0.0418 | -0.841 | -3.24 | -0.128 | -0.0324 | -0.000855
ATATGAA | -0.141 | -0.0789 | -0.151 | -0.409 | -0.0263 | -0.679 | -0.174 | -0.0304 | -0.0785 | -0.0348
ATACTAG | -0.0717 | 0.0054 | -0.771 | -0.798 | 0.0719 | -1.05 | 0.132 | -0.0726 | -0.02 | -0.113
AAAGTAA | 0.0645 | 0.109 | -0.0852 | -0.196 | 0.0633 | -0.33 | -0.0405 | 0.0619 | 0.0654 | 0.0212
GCCCATG | 0.0835 | -0.037 | -0.37 | -0.0272 | -0.0431 | -0.676 | 0.0349 | -0.119 | -0.186 | 0.078
TCGTTCA | -0.0574 | -0.0375 | 0.0576 | -0.804 | -0.189 | -0.258 | -0.395 | 0.0447 | -0.0686 | 0.00348
TAGAGAT | 0.202 | 0.106 | 0.428 | 1.07 | 0.0744 | 1.81 | -2.03 | 0.158 | 0.0551 | 0.161
TTCCCAG | -0.0313 | -0.119 | -0.695 | -0.808 | -0.0754 | -1.06 | -0.0839 | -0.15 | 0.0139 | 0.0126
GGTTCGG | 0.0556 | 0.096 | 0.553 | 1.36 | 0.0561 | 1.82 | 0.188 | 0.133 | 0.044 | 0.0547
CCTTTCC | -0.0872 | -0.0728 | -0.032 | -0.523 | -0.00391 | -0.619 | -0.114 | -0.0741 | -0.131 | -0.099
CTCATGT | 0.0694 | 0.0811 | -0.124 | -0.453 | -0.05 | -0.961 | -0.0749 | -0.0252 | 0.0107 | -0.0814
